Experimental data from PubChem BioAssay AID1508642 (National Center for Advancing Translational Sciences (NCATS), 2021).
In all, about 43,000 compounds went through this assay and about 200 (0.47%) were called active. Roughly 12% stayed inconclusive and do not appear here. The call rests on the fitted dose curve; in most records, active means well fitted cell-killing curve with a large enough effect; inconclusive means small, poorly fitted or top-dose-only effect, or effect the other way; inactive means flat fitted curve, though single readings scatter. This is one part of the list.
On the % scale 0 is the no-effect control and ±100 the full control effect.

Assay: Cell viability qHTS assay in S16 Pmp22-F2sN cells; further: nearly all actives have a fitted effect of over 65% in size
Settings: S16 Pmp22-F2sN Schwann cells viability, CellTiter-Glo, 24 h; series mostly up to 57.5 µM; activity change, negative = cytotoxicity: at the top concentration
Outline: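 Viability was measured by CellTiter-Glo luminescence (15 min, room temperature). This followed 24 h at 37 °C of compound exposure (23 nL pin transfer) in S16 Pmp22-F2sN Schwann cells, 500-1,000 per well.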
In the case of `Cc1ccc2ncc3c(-c4ccc(F)cc4)nn(CC(=O)Nc4ccccc4C)c3c2c1`, the “activity change, negative = cytotoxicity” value is reported as inactive: 4.15%. In the case of `COc1ccc(-c2nc3sc(CCNS(=O)(=O)c4ccccc4)c(C)n3n2)cc1`, the “activity change, negative = cytotoxicity” value is reported as inactive: 8.97%. For `Cc1ccc2[nH]c3c(=O)n(CC(=O)Nc4ccc(Br)cc4C)ncc3c2c1`, the “activity change, negative = cytotoxicity” value was inactive: 17.8%. In the case of `CCOc1ccc(C(=O)Nc2cc3c(cc2N2CCCC2)n(C)c(=O)c(=O)n3C)cc1OCC`, the “activity change, negative = cytotoxicity” value is reported as inactive: 1.44%. For `CSc1ccc(CCNC(=O)CCCn2c(=O)c3cccn3c3ccccc32)cc1`, the “activity change, negative = cytotoxicity” value was inactive: 5.52%. For `CSc1ncc2c(n1)-c1ccccc1N(Cc1ccccc1)S2(=O)=O`, the “activity change, negative = cytotoxicity” value was inactive: -3.08%. With `COc1cc(NS(=O)(=O)c2ccc(NC(=O)c3ccc(Cl)cc3Cl)cc2)nc(OC)n1` the “activity change, negative = cytotoxicity” value was inactive: 11.2%. In the case of `CNC(=O)c1c(NC(=O)/C=C/c2ccccc2)sc2c1CCC2`, the “activity change, negative = cytotoxicity” value is reported as inactive: -11.6%. For `Cc1ccc2nc(-c3ccc(NC(=O)COc4ccc(Br)cc4Br)cc3)sc2c1`, the “activity change, negative = cytotoxicity” value was inactive: 4.84%. In the case of `COc1ccc(NC(=O)C2CCCN(S(=O)(=O)c3c(C)[nH]c(=O)[nH]c3=O)C2)c(OC)c1` (stereo unspecified), the “activity change, negative = cytotoxicity” value is reported as inactive: -1.44%. With `O=C(NCc1ccc(F)cc1)C(=O)NCC(c1ccc2c(c1)OCO2)N1CCOCC1` (stereo unspecified) the “activity change, negative = cytotoxicity” value was inactive: -0.684%. With `Cc1cccc(-c2nc3nc(C)cc(NC(C)c4ccccc4)n3n2)c1` (stereo unspecified) the “activity change, negative = cytotoxicity” value was inactive: 0.211%. In the case of `COc1ccc(C(=O)N(Cc2ccco2)Cc2ccc(C)o2)cc1`, the “activity change, negative = cytotoxicity” value is reported as inactive: -1.14%. In the case of `Cc1ccccc1NC(=O)/C(C#N)=C/c1ccc(Cl)cc1Cl`, the “activity change, negative = cytotoxicity” value is reported as inactive: 7.45%. For `CCc1ccc(NCc2cc3cc4c(cc3n(CC(=O)Nc3ccccc3C)c2=O)OCCO4)cc1`, the “activity change, negative = cytotoxicity” value was inactive: 0.782%. With `CCOC(=O)c1ccc(NC(=O)CC(=O)Nc2ccc3nc4n(c(=O)c3c2)CCCCC4)cc1` the “activity change, negative = cytotoxicity” value was inactive: -4.3%. For `Cc1nn2c(C)c(C(=O)NCCc3ccccc3)cnc2c1-c1ccccc1`, the “activity change, negative = cytotoxicity” value was inactive: 11.2%. With `CCOc1ccc(NC(=O)Cn2nnc(-c3nc(-c4ccncc4)no3)c2N)cc1` the “activity change, negative = cytotoxicity” value was inactive: 2.86%. With `COc1ccc(-c2nc(CS(=O)CC(=O)NCCc3ccc(Cl)cc3)c(C)o2)cc1OC` (stereo unspecified) the “activity change, negative = cytotoxicity” value was inactive: -20.4%. In the case of `CCc1ccc(-n2nc(CO)c(C(=O)NC)n2)cc1`, the “activity change, negative = cytotoxicity” value is reported as inactive: 0.25%. With `CCC(=O)N1CCc2cc(CNS(=O)(=O)c3ccc(CC(C)C)cc3)ccc21` the “activity change, negative = cytotoxicity” value was inactive: -16.5%. In the case of `CCN1CCN(c2ncc3c(n2)CCN(Cc2ccccc2C)C3)CC1`, the “activity change, negative = cytotoxicity” value is reported as inactive: 2.2%. For `CCCCNC(=O)CCCN1C(=O)c2ccccc2Sc2ncccc21`, the “activity change, negative = cytotoxicity” value was inactive: 0.401%. In the case of `Oc1c(C(c2ccc(F)cc2)N2CCN(Cc3ccccc3)CC2)sc2nc(-c3ccco3)nn12` (stereo unspecified), the “activity change, negative = cytotoxicity” value is reported as inactive: 8.01%. With `CN1C(=O)C2(c3ccccc31)N(c1cccc(C(F)(F)F)c1)C(=O)CS2(=O)=O` (stereo unspecified) the “activity change, negative = cytotoxicity” value was inactive: -1.11%. In the case of `COc1cc(CN(C(=O)c2ccccc2F)C2CCS(=O)(=O)C2)cc(OC)c1OC` (stereo unspecified), the “activity change, negative = cytotoxicity” value is reported as inactive: 6.95%. For `Cc1cccc(N2CCN(C(=O)Cn3c(-c4cccs4)cc4ccccc43)CC2)c1C`, the “activity change, negative = cytotoxicity” value was inactive: 1.09%. For `Cc1ccc2c(CC(=O)Nc3ccc(S(=O)(=O)N4CCCCC4)cc3)coc2c1C`, the “activity change, negative = cytotoxicity” value was inactive: -4.08%. With `CCCS(=O)(=O)N1CC(=O)N(c2ccc(C)c(Cl)c2)C(C)(C(=O)NC2CCCCCC2)C1` (stereo unspecified) the “activity change, negative = cytotoxicity” value was inactive: -11.6%. For `Cc1ccc(Cl)cc1-n1nnc(-c2nc(-c3ccc4c(c3)OCO4)no2)c1C`, the “activity change, negative = cytotoxicity” value was inactive: -15.1%. For `COc1ccc(Nc2nn3c(=O)c4cc5c(cc4nc3s2)OCO5)c(OC)c1`, the “activity change, negative = cytotoxicity” value was inactive: 28.8%. For `CCc1ccc(C2c3c(-c4ccccc4O)n[nH]c3C(=O)N2Cc2cccnc2)cc1` (stereo unspecified), the “activity change, negative = cytotoxicity” value was inactive: -29.4%. For `CCC(=O)N1c2ccc(S(=O)(=O)CCC(=O)Nc3ccc(OC)cc3OC)cc2CC1C` (stereo unspecified), the “activity change, negative = cytotoxicity” value was inactive: 5.98%. With `CC(=O)N1CCC(N(CCCOC(C)C)C(=O)Nc2ccc(C)c(C)c2)CC1` the “activity change, negative = cytotoxicity” value was inactive: 2.11%. With `Cc1ccc(NC(=O)c2oc3ccc(S(=O)(=O)N4CCC5(CC4)OCCO5)cc3c2C)cc1Cl` the “activity change, negative = cytotoxicity” value was inactive: 7.18%. For `CCc1cccc(C)c1NC(=O)CSc1nc2ccccc2nc1Cc1ccccc1`, the “activity change, negative = cytotoxicity” value was inactive: 0.253%. For `COc1ccc(-c2nc3cc(NC(=O)COc4ccccc4C)ccc3o2)cc1`, the “activity change, negative = cytotoxicity” value was inactive: -2.66%. In the case of `COc1ccc(CCNC(=O)CN(c2ccccc2)S(=O)(=O)N(C)C)cc1OC`, the “activity change, negative = cytotoxicity” value is reported as inactive: 8.17%. With `CCOC(=O)C(C)NC(=O)c1c2c(nc3ccccc13)C(=O)N(C1CCCCC1)C2` (stereo unspecified) the “activity change, negative = cytotoxicity” value was inactive: 4.48%. With `COc1cc(C(c2c(C)[nH][nH]c2=O)c2c(C)[nH][nH]c2=O)ccc1OC(=O)c1ccccc1OC` the “activity change, negative = cytotoxicity” value was inactive: -1.51%. For `COC(=O)CC1Oc2ccccc2-n2cc(-c3ccc(F)cc3)nc21` (stereo unspecified), the “activity change, negative = cytotoxicity” value was inactive: 20.4%. In the case of `O=C(CN1C(=O)CCSc2ccc(S(=O)(=O)N3CCCC3)cc21)Nc1cccc(F)c1`, the “activity change, negative = cytotoxicity” value is reported as inactive: -2.93%. In the case of `CCc1ccc(-c2cn3nc(CC)sc3n2)cc1`, the “activity change, negative = cytotoxicity” value is reported as inactive: 5.44%. In the case of `COc1cc(OC)c(NC(=O)Cn2ncn3c(cc4cc(C)ccc43)c2=O)cc1Cl`, the “activity change, negative = cytotoxicity” value is reported as inactive: 6.36%. With `Cc1cccc(NC(=O)CSC2=Nc3ccccc3C3=NC(CCC(=O)NCc4ccco4)C(=O)N23)c1` (stereo unspecified) the “activity change, negative = cytotoxicity” value was inactive: -2.93%. In the case of `COc1ccccc1CNC(=O)Cn1cc2c(n1)-c1c(oc(C(=O)N3CCOCC3)c1C)CC2`, the “activity change, negative = cytotoxicity” value is reported as inactive: -13%. With `COC(=O)c1sccc1S(=O)(=O)N(CC(=O)Nc1cccc(C)c1C)c1ccc(C)c(C)c1` the “activity change, negative = cytotoxicity” value was inactive: -13.7%. With `COc1ccc(Cn2c(CO)cnc2SCc2ccc(C)cc2)cc1` the “activity change, negative = cytotoxicity” value was inactive: 4.61%. In the case of `CC(C)(C)OC(=O)N1CCC(c2c(C(=O)N3CCN(Cc4ccccc4)CC3)cnn2-c2cccc(Cl)c2)CC1`, the “activity change, negative = cytotoxicity” value is reported as inactive: 6.24%. For `CC(C)CN(CCNC(=O)CCN1N=C(c2ccccc2)CCC1=O)CC(C)C`, the “activity change, negative = cytotoxicity” value was inactive: 7.77%. In the case of `COc1ccc2c(c1)c1c(c(=O)n(CCc3ccccc3)c(=O)n1Cc1cccc(F)c1)n2C`, the “activity change, negative = cytotoxicity” value is reported as inactive: 1.65%. In the case of `Cc1ccc(-c2onc(C)c2C)cc1S(=O)(=O)Nc1ccccn1`, the “activity change, negative = cytotoxicity” value is reported as inactive: 2.5%. For `CCc1ccccc1NC(=O)c1ccc2c(c1)CCCN2S(C)(=O)=O`, the “activity change, negative = cytotoxicity” value was inactive: -3.77%. For `CCN(CC)C(=O)CSc1nnc2ccc3ccccc3n12`, the “activity change, negative = cytotoxicity” value was inactive: 8.85%. In the case of `Cc1ccc(-c2c(CN3CCN(c4cc(C)ccc4C)CC3)csc2C)cc1`, the “activity change, negative = cytotoxicity” value is reported as inactive: 0.653%. With `CCc1ccccc1NC(=O)CN1C(=O)CCn2nc(-c3cccn3C)cc21` the “activity change, negative = cytotoxicity” value was inactive: -0.036%. For `CCc1ccc(NC(=O)CC(c2cc(OC)c(OC)c(OC)c2)N2Cc3ccccc3C2=O)cc1` (stereo unspecified), the “activity change, negative = cytotoxicity” value was inactive: -1.32%. With `CCOC(=O)C1CCN(c2nc3c(S(=O)(=O)c4ccc(Br)cc4)nnn3c3ccsc23)CC1` the “activity change, negative = cytotoxicity” value was inactive: 16.5%. For `FC(F)(F)c1cccc(-n2cc(-c3ccccc3)c3c(N4CCCCC4)ncnc32)c1`, the “activity change, negative = cytotoxicity” value was inactive: 19.5%. With `COc1ccc(CCNC(=O)Cn2cc(C(=O)c3ccc(Cl)cc3)c(=O)c3ccc(C)nc32)cc1OC` the “activity change, negative = cytotoxicity” value was inactive: -10.3%. For `CCCN(CCC)CCNC(=O)Cn1cnc2sc(C)c(S(=O)(=O)N3CCC(C)CC3)c2c1=O`, the “activity change, negative = cytotoxicity” value was inactive: 3.73%.
